The source of these data is the antibiotic and cytotoxicity screens of Wong et al. (2023).

This is one part of the list.

One assay deals with HSkMC. Briefly: cytotoxicity call (relative viability < 0.9). As to conditions: 10 µM.
The next assay has as its system HepG2. Briefly: cytotoxicity call (relative viability < 0.9). The settings on record: 10 µM.
The next assay has as its system S. aureus RN4220. Briefly: growth inhibition call (relative growth <= 0.2). As to conditions: 50 µM.

On to `Cc1noc(C)c1S(=O)(=O)N(C)C[C@H]1Oc2c(NC(=O)C3CCOCC3)cccc2C(=O)N([C@H](C)CO)C[C@H]1C`, for which the cytotoxicity call in the assay with HSkMC and with HepG2 was “inactive” throughout. The growth inhibition call with S. aureus RN4220 was “inactive”.
With `C[C@H](CO)N1C[C@H](C)[C@@H](CN(C)S(=O)(=O)c2ccccc2F)Oc2cc(C#Cc3ccccc3)ccc2S1(=O)=O`, the cytotoxicity call with HSkMC and in the assay on HepG2 was “inactive” in each case. Besides, the growth inhibition call with S. aureus RN4220 was “inactive”.
Consider `COc1ccc(NC(=O)N(C)C[C@@H]2OCCCC[C@@H](C)Oc3ccc(NC(=O)Nc4ccc5c(c4)OCO5)cc3C(=O)N([C@H](C)CO)C[C@H]2C)cc1`, for which the cytotoxicity call in the assay with HSkMC and in the assay with HepG2 was “inactive” throughout. Further, in the assay on S. aureus RN4220, the growth inhibition call was “inactive”.
Regarding `C[C@@H]1CN([C@H](C)CO)C(=O)c2cc(C#CC3(O)CCCC3)cnc2O[C@@H]1CN(C)S(C)(=O)=O`, the cytotoxicity call in the assay on HSkMC and in the assay with HepG2 was “inactive” in each case. The growth inhibition call with S. aureus RN4220 was “inactive”.
For `C[C@@H]1CN([C@H](C)CO)C(=O)Cc2cc(NC(=O)Nc3cccc4ccccc34)ccc2O[C@H]1CN(C)Cc1ccc(C(F)(F)F)cc1`, the cytotoxicity call with HSkMC and in the assay on HepG2 was “inactive” in each case. The growth inhibition call in the assay with S. aureus RN4220 is “inactive”.
`Cc1ccc(C2OC(CO)C(O)C(O)C2O)cc1Cc1ccc(-c2ccc(F)cc2)s1` (centres undefined): the cytotoxicity call in the assay with HSkMC and in the assay on HepG2 was “inactive” throughout. In the assay with S. aureus RN4220, the growth inhibition call is “inactive”.
For `C[C@@H]1CN([C@H](C)CO)C(=O)c2cccc(NS(C)(=O)=O)c2O[C@H]1CN(C)S(=O)(=O)c1ccccc1`, the cytotoxicity call with HSkMC and in the assay with HepG2 was “inactive” each time. For the same molecule, in the assay on S. aureus RN4220, the growth inhibition call is “inactive”.
As to `COc1cc(CO)cc(I)c1O[C@H]1C=C(C(=O)NCCO)C[C@@H](N(Cc2ccc(F)cc2)C(=O)[C@H]2CCCO2)[C@@H]1O`, the cytotoxicity call in the assay on HSkMC and in the assay with HepG2 was “inactive” in each case. The growth inhibition call in the assay on S. aureus RN4220 was “inactive”.
`Cc1nccn1-c1ccc(CN)cc1`: the cytotoxicity call in the assay on HSkMC and in the assay with HepG2 was “inactive” in each case. The growth inhibition call with S. aureus RN4220 is “inactive”.
Turning to `COc1ccccc1C#Cc1cnc2c(c1)C(=O)N([C@H](C)CO)C[C@H](C)[C@H](CN(C)S(=O)(=O)c1cn(C)cn1)O2`, the cytotoxicity call with HSkMC and in the assay on HepG2 was “inactive” throughout. In the assay with S. aureus RN4220, the growth inhibition call is “inactive”.
`C[C@@H]1CCCCO[C@H](CN(C)Cc2ccc(Cl)c(Cl)c2)[C@@H](C)CN([C@H](C)CO)C(=O)c2cc(NC(=O)Nc3ccc4c(c3)OCO4)ccc2O1`: in the assay with HSkMC, the cytotoxicity call was “inactive”. In addition, the cytotoxicity call with HepG2 is “active”. In the assay with S. aureus RN4220, the growth inhibition call is “inactive”.
Regarding `C[C@@H]1CN([C@@H](C)CO)C(=O)Cc2cc(NS(=O)(=O)c3ccccc3)ccc2O[C@H]1CN(C)Cc1ccc(Cl)c(Cl)c1`, the cytotoxicity call in the assay on HSkMC and in the assay on HepG2 was “active” throughout. The growth inhibition call in the assay with S. aureus RN4220 is “inactive”.
For the molecule `O=C(O)c1cc(-c2ccc(F)cc2F)ccc1O`, the cytotoxicity call in the assay on HSkMC and with HepG2 was “inactive” each time. In addition, the growth inhibition call with S. aureus RN4220 is “inactive”.
For `COc1cc(NC(=O)c2cccs2)c(C(=O)OCC(=O)c2cc(C)n(-c3ccccc3)c2C)cc1OC`, the cytotoxicity call in the assay on HSkMC and in the assay on HepG2 was “inactive” throughout. For the same molecule, the growth inhibition call in the assay on S. aureus RN4220 is “inactive”.
Consider `C[C@H](CO)N1C[C@H](C)[C@@H](CN(C)S(C)(=O)=O)Oc2ccc(NC(=O)Nc3ccc4c(c3)OCO4)cc2CC1=O`, for which the cytotoxicity call in the assay with HSkMC and in the assay on HepG2 was “inactive” in each case. Further, the growth inhibition call in the assay with S. aureus RN4220 was “inactive”.
Consider `COc1c(N2CC3CCCNC3C2)c(F)cc2c(=O)c(C(=O)O)cn(C3CC3)c12.Cl` (centres undefined), for which the cytotoxicity call with HSkMC and in the assay on HepG2 was “inactive” each time. Further, the growth inhibition call in the assay with S. aureus RN4220 is “active”.
As to `O=C(C[C@H]1CC[C@@H](NC(=O)CN2CCOCC2)[C@@H](CO)O1)NCCc1ccccc1`, the cytotoxicity call with HSkMC and in the assay on HepG2 was “inactive” throughout. In addition, in the assay on S. aureus RN4220, the growth inhibition call is “inactive”.
For `Cc1noc(C)c1S(=O)(=O)Nc1ccc2c(c1)C(=O)N([C@H](C)CO)C[C@H](C)[C@@H](CN(C)Cc1ccncc1)O2`, the cytotoxicity call with HSkMC and in the assay with HepG2 was “inactive” in each case. Further, in the assay with S. aureus RN4220, the growth inhibition call was “inactive”.
For the molecule `O=C(O)c1ccccc1O`, the cytotoxicity call in the assay with HSkMC and in the assay on HepG2 was “inactive” each time. For the same molecule, the growth inhibition call in the assay on S. aureus RN4220 was “inactive”.
Regarding `C[C@H](CO)N1C[C@H](C)[C@@H](CN(C)S(C)(=O)=O)OCCCC[C@H](C)Oc2ccc(NC(=O)CCCN(C)C)cc2C1=O`, the cytotoxicity call with HSkMC and with HepG2 was “inactive” in each case. Also, the growth inhibition call in the assay with S. aureus RN4220 was “inactive”.
Turning to `CN1CCN(C(=O)C[C@H]2CC[C@H]3[C@@H](COC[C@@H](O)CN3Cc3ccc4c(c3)OCO4)O2)CC1`, the cytotoxicity call in the assay on HSkMC and in the assay with HepG2 was “inactive” throughout. Also, the growth inhibition call in the assay on S. aureus RN4220 is “inactive”.
With `CC/C=C/C(=O)N(C[C@@H]1CCCO1)[C@@H]1CC(C(=O)NCCO)=C[C@H](Oc2c(I)cc(CO)cc2OC)[C@H]1O`, the cytotoxicity call in the assay with HSkMC and in the assay on HepG2 was “inactive” each time. Besides, in the assay on S. aureus RN4220, the growth inhibition call was “inactive”.
As for `C[C@@H]1CN([C@H](C)CO)C(=O)c2cccc(NC(=O)c3cnccn3)c2O[C@@H]1CN(C)S(=O)(=O)c1ccc(Cl)cc1`, the cytotoxicity call in the assay with HSkMC and in the assay with HepG2 was “inactive” in each case. In addition, the growth inhibition call in the assay on S. aureus RN4220 was “inactive”.
For the molecule `CCS(=O)(=O)N1C[C@]2(CN(Cc3cc(ccc3F)F)C2)c2c(n(c3cc(ccc23)OC)C)[C@@H]1CO`, the cytotoxicity call in the assay on HSkMC and with HepG2 was “inactive” each time. In addition, the growth inhibition call in the assay with S. aureus RN4220 was “inactive”.
Turning to `COc1ccc(NC(=O)N(C)C[C@H]2OCCCC[C@@H](C)Oc3ccc(NS(=O)(=O)c4c(C)noc4C)cc3C(=O)N([C@@H](C)CO)C[C@H]2C)cc1`, the cytotoxicity call in the assay with HSkMC and in the assay on HepG2 was “inactive” in each case. In the assay on S. aureus RN4220, the growth inhibition call is “inactive”.
Consider `C[C@@H]1CN([C@@H](C)CO)C(=O)c2cc(NC(=O)C3CCCCC3)ccc2O[C@@H]1CN(C)Cc1ccc(C(F)(F)F)cc1`, for which the cytotoxicity call with HSkMC and in the assay on HepG2 was “inactive” throughout. The growth inhibition call in the assay with S. aureus RN4220 is “inactive”.
For the molecule `C[C@H](CO)N1C[C@H](C)[C@@H](CN(C)S(=O)(=O)c2ccccc2)Oc2ccc(NC(=O)Cc3ccccc3)cc2C1=O`, the cytotoxicity call in the assay on HSkMC (human skeletal muscle cells) and in the assay with HepG2 was “inactive” each time. Further, the growth inhibition call in the assay with S. aureus RN4220 was “inactive”.
As for `COc1ccc(S(=O)(=O)Nc2ccc3c(c2)CC(=O)N([C@@H](C)CO)C[C@H](C)[C@@H](CN(C)Cc2ccncc2)O3)cc1`, the cytotoxicity call with HSkMC and in the assay with HepG2 was “inactive” throughout. Moreover, the growth inhibition call in the assay with S. aureus RN4220 is “inactive”.
